Measured values as given in the RNAGym collection of RNA variant scans (doi:10.7554/elife.90254).
Read counts are not given, so values of variants with three or more changes are uncertain.

B1: LINE1-full (parent)
chain: UACGUAGGUGGUUUUCCCCUGAUAGUGCUAAGGGGGCCUGGAAGUUUGGACUGGGCAGAGCUCAACACAGCGUGGCAAAGUGGCUGUGGCUAGACUGCCUCUCUGGAUUCCUCGUCACUCAGCAGGGCAUCUCUGAGAGAAAUGCC

Variants of: B1
Test: self-cleavage, relative activity (ratio to wild type); higher = more cleavage; in vitro, sequencing; the parent is a self-cleaving ribozyme

Variant | self-cleavage
U39A A43G A92G | 0.04
U39A A50G A59U G97A | 0.07
U39A A50G U73C | 1.23
U39A A57G A77U U115C | 0.71
U39A A57U U100C U112C A129G U132C | 0.48
U39A A59G A94G G114A | 0.18
U39A A64G A69G | 0.21
U39A A64G A142G | 0.29
U39A A64U A67C A92G U134G A140G | 0.07
U39A A64U G89A | 0.03
U39A A65G A78G A117G | 0
U39A A65G G75U | 0.02
U39A A65G U104A U115A U134C | 0.16
U39A A65U U115G | 0
U39A A65U U132C U143C | 0.08
U39A A69G A124U | 0.51
U39A A69G A138G | 0.53
U39A A69G G93A U96C | 0.1
U39A A69G U109A | 0.43
U39A A69U U96A | 0.02
U39A A77G G89U | 0.16
U39A A77G U115C A142G | 2.21
U39A A77U U134C | 1.13
U39A A79U A129G | 1.38

Variant | self-cleavage
U39A A92G A107G U108C A141G | 0
U39A A92G U102C | 0.2
U39A A94G U130C | 0.08
U39A A94U U130C | 0.19
U39A A117G A141G | 1.82
U39A A117G C131U | 1.16
U39A A124G G125A | 0.48
U39A A129G A141U | 2.21
U39A C61U A92U | 0.02
U39A C113U A121G | 0.88
U39A G49U A77U U108C A141G | 1.12
U39A G53U U102C A107G | 1.75
U39A G72A A136U | 2.37
U39A G89U U102C | 0.05
U39A G93A C113U | 0.04
U39A U45C G55C | 0.05
U39A U45C U62C | 0.06
U39A U45C U81A | 2.38
U39A U46C U102C A121G A129U | 0.51
U39A U47A U108A U132C A140G | 1.12
U39A U52A A69C A77G A129G | 0.17
U39A U52A A117U | 1.5
U39A U52C A65C U112C A138G | 0
U39A U52C A69U A94G | 0

Variant | self-cleavage
U39A U52C U62A C95U A129U | 0.03
U39A U52G U91A | 1.02
U39A U62A U73A G88A A140U | 0.02
U39A U62C A107G | 0.16
U39A U62C U73C | 0.09
U39A U62C U85C | 0
U39A U62C U87A C128A | 0.04
U39A U62C U96C | 0.13
U39A U81C A136U | 1.22
U39A U85C A136G A138G | 0.37
U39A U87A U108C | 0.12
U39A U87A U112C U132C | 0.06
U39A U87C C128G | 0.27
U39A U91A A107G A129G | 1.01
U39A U96A U102C A129G | 0.11
U39A U96C U134C A138U | 0.1
U39A U100A G114U | 1.01
U39A U104C A140U | 1.76
U39A U104G A129G | 1.76
U39A U112C A140G | 0.96
U39A U115A U119A A121G | 1.23
U39C A42G A64U A138G | 0.55
U39C A42G A121U A141G | 1.18
U39C A42G U85C | 0

Variant | self-cleavage
U39C A42G U100A U130C | 1.22
U39C A43G A77U | 0.8
U39C A43G G48A U109C A140G | 0.74
U39C A43G U47C U119C | 2.63
U39C A43G U73A U102A U112C | 0.99
U39C A43G U132A | 0.9
U39C A50G A69G C145A | 0
U39C A50G A129U A136G | 1.44
U39C A50G G58U G88U | 0.06
U39C A50G U104A A136G | 0.3
U39C A57G G125A | 0.16
U39C A57G U112A | 1
U39C A57U C146U | 0.08
U39C A59G A138G | 0.13
U39C A59U A107G U112C | 1.8
U39C A64G U85A C98U U102C | 0.17
U39C A64U U134C | 0.44
U39C A65G U73C | 0
U39C A65U U102A | 0.09
U39C A65U U119C | 0.16
U39C A69U U87A C95U A124G | 0.04
U39C A77G A140G A142G | 2.43
U39C A77G U87C | 0
U39C A77G U134C | 2.9

Variant | self-cleavage
U39C A79G U119C A142G | 0.92
U39C A92C A142G | 0.18
U39C A94G A136G | 0.41
U39C A94G A136G A138G A141G | 0
U39C A94G A138U | 0.22
U39C A94G U119C U143G | 0
U39C A117U A121G | 2.3
U39C A129G A138G A142G | 1.23
U39C A136G A140G | 1.3
U39C A136U U143C | 0.48
U39C A138U A141G | 1.85
U39C C71G A79U U112C | 0.16
U39C C95A U109C | 0.06
U39C C103A U130A | 0.77
U39C G41A A69U | 0.07
U39C G49A A64U | 0.39
U39C G55A U130C A136G | 0.43
U39C G72A A142G | 1.23
U39C G72U A77G G97U | 0.03
U39C G74A A78G | 0.22
U39C U45C A65G U96A | 0
U39C U46C C71U U73A | 0.31
U39C U47A G75A U104A A141G | 0.59
U39C U47A U130C | 1.13

Variant | self-cleavage
U39C U47C A64G U130A A140G | 0
U39C U47C C76U U104C A129G U130C | 1.67
U39C U47G A77U U108C C128U | 1.46
U39C U52A C90U A94U U115G | 0.05
U39C U52C A141G | 0.23
U39C U52G A129U A140G | 1.57
U39C U62C G83U G122A | 0.03
U39C U62C U134C | 0.11
U39C U73C A141G | 1.7
U39C U81A A140G U143A | 1.72
U39C U81A U87A U104C | 0.44
U39C U81C U130A | 0.42
U39C U85G U91C | 0
U39C U91A A141G | 0
U39C U91C A141G | 0.1
U39C U96A A124G | 0.08
U39C U96A C103A | 0.05
U39C U96A U130C | 0.08
U39C U100C G106C A138U | 2.23
U39C U102G U115A | 0.66
U39C U104C U109A | 2.64
U39C U109C A136G A142G | 0.74
U39C U109C A138G | 0.77
U39C U115C A138G | 2.57

Variant | self-cleavage
U39C U130A U143C | 1.25
U39C U130C U143C | 1.72
U39G A43G U108C | 0.32
U39G A59G C90U | 0.06
U39G A67G G106U A117G | 0.24
U39G A92U U96C U130C A138G A140U | 0
U39G C103A A124U | 1.38
U39G G48A A64G | 0.44
U39G G75U A94G U104A U130A | 0.16
U39G U45C A142G | 1.62
U39G U46C A79G | 0.57
U39G U46C U91A | 1.54
U39G U47C U104C G114A | 2.09
U39G U108C A140G | 1.53
U39G U115C U119C | 0
G40A A50G U130C | 0.54
G40A A50G U134A | 0.64
G40A A59G A107G U115C | 0
G40A A59U U143C | 0.41
G40A A77G A121G | 2.12
G40A A77G C110U A140G | 1.84
G40A A77U A140G | 0.17
G40A A117U A141G G144A | 0.59
